Laboratory results from PubChem BioAssay AID256 (DTP/NCI, 2004).
Further values from the same series stand in other lists. Toxic doses and inconclusive results are not listed. Rule for the calls: active = survival T/C of 150% or more; inactive = T/C below 125% in these data.

System: CD2F1 mice, L1210 leukemia ip, survival T/C
Test: NCI In Vivo Anticancer Drug Screen. Data for tumor model L1210 Leukemia (intraperitoneal) in CD2F1 (CDF1) mice
Conditions: higher = longer survival
In short: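 Transplantable tumor in mice; compound-treated vs vehicle-treated groups. Read-out = treated/control ratio of the measured endpoint.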

Measured: T/C

NC(=O)c1csc(C2OC(CO)C(O)C2O)n1 (stereo not given)
inactive: endpoint: median survival time, dose: 46.88 mg/kg/injection, schedule: Q01DX005 (ip), vehicle: water 105 % of control | endpoint: median survival time, dose: 187.5 mg/kg/injection, schedule: Q01DX005 (ip), vehicle: water 108 % of control

CN(C)/N=N/c1nc[nH]c1C(N)=O
inactive: endpoint: mean survival time, dose: 6.25 mg/kg/injection, schedule: Q03HX024 (ip), vehicle: steriod suspending solution 111 % of control | endpoint: mean survival time, dose: 12.5 mg/kg/injection, schedule: Q03HX024 (oral), vehicle: steriod suspending solution 111 % of control | endpoint: mean survival time, dose: 18.75 mg/kg/injection, schedule: Q01DX009 (ip), vehicle: Klucel (hydroxypropylcellulose) (HPC) 112 % of control | endpoint: mean survival time, dose: 25.0 mg/kg/injection, schedule: Q03HX016 (ip), vehicle: steriod suspending solution 112 % of control | endpoint: mean survival time, dose: 50.0 mg/kg/injection, schedule: Q04DX003 (ip), vehicle: other 111 % of control | endpoint: mean survival time, dose: 200.0 mg/kg/injection, schedule: Q08DX002 (ip), vehicle: steriod suspending solution 112 % of control | endpoint: median survival time, dose: 14.8 mg/kg/injection, schedule: Q03HX008 (ip), vehicle: Klucel (hydroxypropylcellulose) (HPC) 112 % of control | endpoint: median survival time, dose: 400.0 mg/kg/injection, schedule: Q01DX001 (ip), vehicle: Klucel (hydroxypropylcellulose) (HPC) 112 % of control
